Measured values published in the RNAGym collection of RNA variant scans (doi:10.7554/elife.90254).
The source gives no read counts; variants with many changes may rest on few reads.

B1: LINE1-full (parent)
chain: UACGUAGGUGGUUUUCCCCUGAUAGUGCUAAGGGGGCCUGGAAGUUUGGACUGGGCAGAGCUCAACACAGCGUGGCAAAGUGGCUGUGGCUAGACUGCCUCUCUGGAUUCCUCGUCACUCAGCAGGGCAUCUCUGAGAGAAAUGCC

Variants of: B1
Experiment: self-cleavage, relative activity (ratio to wild type); higher = more cleavage; in vitro, sequencing; the parent is a self-cleaving ribozyme

Variant | self-cleavage
UACGUAGGCGGUUUUCCCCUGAUAGUGCUAAGGGGGCCUGGAAGUUUGGACUGGGCAGAGCUCAACACAGCGUGGCAAAGUGGCAGUGGCUUGACUGCCUCUCUGGAUUCCUCGUCACUCAGCAGGGCAUCUCUGAGAGAAGUGCC [U9C U85A A92U A142G] | 0
UACGUAGGCGGUUUUCCCCUGAUAGUGCUAAGGGGGCCUGGAAGUUUGGACUGGGCAGAGCUCAACACAGCGUGGCAAAGUGGCUGUGGCUAGACUGCCUCUCCGGAUUCCUCGCCACUCAGCAGGGCAUCUCUGAGAGAAAUGCC [U9C U104C U115C] | 1.15
UACGUAGGCGGUUUUCCCCUGAUAGUGCUAAGGGGGCCUGGAAGUUUGGACUGGGCAGAGCACAACACAGCGUGGCAAAGUGGCUGUGGCUAGACUGCCUCUCUGGAUUCCUUGUCACUCAGCAGGGCAUCUCUGAGAGAAUUGCC [U9C U62A C113U A142U] | 0.04
UACGUAGGGGGUUUUCCCCUGAUAGUGCUAAGGGGGCCUGGAAGUUUGGACUGGGCAGAGCUCAACGCAGCGUGGCAAAGUGGCUGUGGCUAGACUGCCUCUCUGGUUUCCUCGCCACUCAGCAGGGCAUCUCUGAGAGAAAUGCC [U9G A67G A107U U115C] | 1.97
UACGUAGGCGGUUUUCCCCUGAUAGUGCUAAGGGGGCCUGGAAGUUUGGACUGGGCAGAGCUCAACACAGCGUGGCAAAGUGGCUGUGGCCAGACUGCCUCUCUGGAUUCCUCGUCACUCAGCAGGGCAUCCCUGAGAGAAAUGCC [U9C U91C U132C] | 0.32
UACGUAGGCGGUUUUCCCCUGAUAGUGCUAAGGGGGCCUGGAAGUUUGGACUGGGCAGAGCUCAACACAGCGUGGCAAAGUGGCUGUGGCUAGACUGCCUCUCUGGAUUCCCCGUCACUCAGCAGGGCAUCUCUGAGAGAAGUGCC [U9C U112C A142G] | 1.67
UACGUAGGCGGUUUUCCCCUGAUAGUGCUAAGGGGGCCUGGAAGUUUGGACUGGGCAGAGCUCAACACAGCGUGGCAAAGUGGCUGUGGCAGGACUGCCUCUCUGGAUUCCUCGUCACUCAGCAGGGCAUCUCUGAGAGAAAUGCC [U9C U91A A92G] | 0.1
UACGUAGGCGGUUUUCCCCUGAUAGUGCUAAGGGGGCCUGGAAGUUUGGACUGGGCAGAGCACAACACGGCGUGGCAAAGUGGCUGUGGCUAGACUGCCUCUCUGGAUUCCUCGUCACUCAGCGGGGCAUCUCUGAGAGAAAUGCC [U9C U62A A69G A124G] | 0
UACGUAGGCGGUUUUCCCCUGAUAGUGCUAAGGGGGCCUGGAAGUUUGGACUGGGCAGAGCCCAACACAGCGAGGCAAAGUGGCUGUGGCUAGACUGCCUCUCUGGAUUCCUCGUCACUCAGCAGGGCAUCUCUGAGAGAAAUGCC [U9C U62C U73A] | 0.09
UACGUAGGCGGUUUUCCCCUGAUAGUGCUAAGGGGGCCUGGAAGUUUGGACUGGGCAGAGCACAACACAGCGUGGCAAAGUGGCUGUGGCUAGACUGCCUCUCUGGAUUCCUCGUCACUCAGCGGGGCAUCUCUGAGAGAAAUGCC [U9C U62A A124G] | 0
UACGUAGGCGGUUUUCCCCUGAUAGUGCUAAGGGGGCCUGGAAGUUUGGACUGGGCAGAGCUCAACACAGCGUGGCAAAGUGGCUGUGGCUAGACCGCCUCUCUGGACUCCUCGUCACUCAGCAGGGCAUCUCUGAGAGAAAUGCC [U9C U96C U108C] | 0
UACGUAGGCGGUUUUCCCCUGAUAGUGCUAAGGGGGCCUGGAAGUUUGGACUGGGCAGAGCUCAACACAGCGUGGCAAAGUGGCCGUGGCUAGACUGCCUCUCUGGAUUCCCCGUUACUCAGCAGGGCAUCUCUGAGAGAAAUGCC [U9C U85C U112C C116U] | 0.2
UACGUAGGGGGUUUUCCCCUGAUAGUGCUAAGGGGGCCUGGAAGUUUGGACUGGGCAGAGGUCAACACAGCGUGGCAAAGUGGCUGUGGCUAGACUGCCUCUCUGGAUUCCUCGUCACUCAGCAGGGCAUCUCUAAGAGGAAUGCC [U9G C61G G135A A140G] | 0.29
UACGUAGGGGGGUUUCCCCUGAUAGUGCUAAGGGGGCCUGGAAGUUUGGACUGGGCAGAGCUCAACACAGCGUGGCAAAGUGGCUGUGGCUAGACCGCCUCUCUGGAUUCCUCGUCACCCAGCAGGGCAUCUCUGAGAGAAAUGCC [U9G U12G U96C U119C] | 0.29
UACGUAGGCGGUUUUCCCCUGAUAGUGCUAAGGGGGCCUGGAAGUUUGGACUGGGCAGAGCUCAACACAGCGUGGCAAAGUGGCUGUGGCUAGACUGCCCCUCUGGAUUCCUCGUCACUCAGCAGGGCAUCUCUGAGAGAAGUGCC [U9C U100C A142G] | 1.41
UACGUAGGCGGUUUUCCCCUGAUAGUGCUAAGGGGGCCUGGAAGUUUGGACUGGGCAGAGCUCAACACAGCGUGGCAAAGUGGCUGUGGCUAGACUGCCUCUCUGGAUACCUCGUCACUCAGCAGGGCACCUCUGAGAGAAAUGCC [U9C U109A U130C] | 1.29
UACGUAGGCGGUUUUCCCCUGAUAGUGCUAAGGGGGCCUGGAAGUUUGGACUGGGCAGAGCCCAACACAGCAUGGCAAAGUGGCUGUGGCUAGACUGCCUCUCUGGAUUCCUCGUCACUCAGCAGGGCAUCUCUGAGAGAAAUGCC [U9C U62C G72A] | 0.09
UACGUAGGGGGUUUUCCCCUGAUAGUGCUAAGGGGGGCUGGAAGUUUGGACUGGGCAGAGCUCAACACAGCGUGGCAAAGUGGCUGUGGCUAGACUGCCUCUCUGAAUUCCUCGUCACUCAGCAGGGCAUCUCUGAGAGAAAUGCC [U9G C37G G106A] | 1.34
UACGUAGGGGGUUUUCCCCUGAUAGUGCUAAGGGGGCCUGGAAGCUUGGGCUGGGCAGAGCUCAACACAGCGUGGCUAAGUGGCUGUGGCUAGACUGCCUCUCUGGAUUCCUCGUCACUCAGCAGGGCAUCUCUGAGAGAAAUGCC [U9G U45C A50G A77U] | 0.33
